{
  "source": "paper PMC6224509",
  "about": "(Nature Communications, 2018)",
  "binders": {"B1": {"name": "human 4-1BB […], wild type, His–Avi (receptor)", "chain": "not shown", "notes": "human 4-1BB (CD137, TNFRSF9), […]; also called h4-1BB; wild type h4-1BB receptor; source: HEK cells, transfected, secreted, purified (NiExcel, Superdex 200); not shown: His8, C-terminal, kept; Avi, C-terminal, kept"}, "B2": {"name": "human 4-1BB […] I64R, His–Avi (receptor)", "chain": "not shown", "notes": "human 4-1BB (CD137, TNFRSF9), […], I64R; source: HEK cells, transfected, secreted, purified (NiExcel, Superdex 200); not shown: His8, C-terminal, kept"}, "B3": {"name": "human 4-1BB […] V71R, His–Avi (receptor)", "chain": "not shown", "notes": "human 4-1BB (CD137, TNFRSF9), […], V71R; source: HEK cells, transfected, secreted, purified (NiExcel, Superdex 200); not shown: His8, C-terminal, kept"}, "B4": {"name": "human 4-1BBL […] (crystallization construct) (ligand)", "chain": "not shown", "notes": "[…] visible in the ligand-only structure; also called 4-1BB ligand; TNFSF9; source: HighFive insect cells (baculovirus), secreted, purified (Ni Sepharose excel, Superdex 200)"}},
  "key": {"[1]": {"molecular_target": "T1, human 4-1BBL residues 58–254, wild type, His–Avi (human, UniProt P41273 in part, biotinylated with the BirA Biotin-protein ligase kit when necessary (surface capture, ELISA detection))", "T1 construct": "human 4-1BBL (TNFSF9), residues 58-254; The insect-cell construct of the same limits is a trimer; also called wild type 4-1BBL; biotinylated human 4-1BBL wild type; source: HEK cells, transfected, secreted, purified (NiExcel, Superdex 200); not shown: His8, C-terminal, kept; Avi, C-terminal, kept", "assay": "SPR; Bio-Rad ProteOn XPR36, biotinylated 4-1BBL (wild type or R171A) captured on an NLC neutravidin chip; human 4-1BB 3.2-2000 nM as analyte; 37 °C, HBS with 0.01% Tween-20 and 1 mg/mL BSA; steady-state analysis; triplicate", "conditions": "both partners purified"}, "[2]": {"molecular_target": "T2, human 4-1BBL residues 58–254 R171A, His–Avi (human, UniProt P41273 in part, R171A, biotinylated with the BirA Biotin-protein ligase kit)", "T2 construct": "human 4-1BBL (TNFSF9), residues 58-254, R171A; also called R171A mutant 4-1BBL; R171A 4-1BBL; source: HEK cells, transfected, secreted, purified (NiExcel, Superdex 200); not shown: Avi, C-terminal, kept", "assay": "SPR; Bio-Rad ProteOn XPR36, biotinylated 4-1BBL (wild type or R171A) captured on an NLC neutravidin chip; human 4-1BB 3.2-2000 nM as analyte; 37 °C, HBS with 0.01% Tween-20 and 1 mg/mL BSA; steady-state analysis; triplicate", "conditions": "both partners purified"}, "[3]": {"molecular_target": "T1, human 4-1BBL residues 58–254, wild …", "assay": "ELISA; His-tagged 4-1BB WT or arginine mutants captured at 4 °C overnight by an anti-His antibody; 10 µg/ml utomilumab, urelumab or biotinylated 4-1BBL at RT for 1 h; detection with anti-human IgG Fc-HRP or streptavidin-HRP; triplicate", "conditions": "both partners purified"}, "[4]": {"molecular_target": "the molecule itself", "assay": "SEC-MALS; 4-1BB/4-1BBL complex and soluble 4-1BBL alone (Supplementary Figure 1); conditions not shown"}},
  "data": [
    {"binder": "B1", "values": [
      {"measurement": "Kd", "setting": "[1]", "result": "680 ± 31", "unit": "nM"},
      {"measurement": "Kd", "setting": "[2]", "result": "521 ± 17", "unit": "nM"}
    ]},
    {"binder": "B2", "values": [
      {"measurement": "binding result", "setting": "[3]", "result": "binds"}
    ]},
    {"binder": "B3", "values": [
      {"measurement": "binding result", "setting": "[3]", "result": "binds"}
    ]},
    {"binder": "B4", "values": [
      {"measurement": "stoichiometry N", "setting": "[4]", "result": 3}
    ]}
  ]
}
